Test results taken from PubChem BioAssay AID924 (National Center for Advancing Translational Sciences (NCATS), 2007).
The whole screen tested about 130,000 compounds, of which about 1,200 (0.92%) were called active. The shares of active, inactive and inconclusive entries below differ from those in the screen. Calls follow the shape of the dose curve; as a rule, active = well fitted cell-killing curve with a large enough effect; inconclusive = small, poorly fitted or top-dose-only effect; inactive = no such curve, though single readings can be large or run the other way. Potencies of inconclusive entries are doubtful fits and often do not repeat.

Assay: qHTS Screen for Compounds that Selectively Target Cancer Cells with p53 Mutations: Cytotoxicity of p53ts Cells at the Permissive Temperature; also: nearly all actives have a fitted effect of over 55% in size;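 as to activity change, negative = cytotoxicity: 0% = DMSO and -100% = full killing by reference compound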
Details: H1299-p53A138V at 32C, ATP luminescence viability, 24 h; activity change, negative = cytotoxicity: at 46.1 µM (top of the series)
Summary of the method: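 ATP-content luminescence (ATPlite) read-out after 24 h compound exposure at 32C in H1299-p53A138V cells (600/well). Tested up to 46 uM. Normalized to DMSO (0%) and 100 uM tamoxifen (100% killing); Hill-fit AC50.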
Potency is read from the fitted curve at half-maximal effect; tags tell the direction and shape of the fitted curve.

Row | Compound | Potency | activity change, negative = cytotoxicity
1 | COc1ccc(-c2cn3ccccc3n2)cc1OC | active: 3.16 µM | –
2 | CCC1CN(C(=O)Nc2cc(C)cc(C)c2)c2ccccc2O1 (centres undefined) | inconclusive: 35.5 µM [cytotoxic, single point] | –
3 | O=C(NCC1CCCO1)C1CC(c2ccc(Cl)c(Cl)c2)=NO1 (centres undefined) | inactive | –
4 | Cc1c(-c2nsc(NC(=O)c3cccs3)n2)nnn1-c1ccc(Br)cc1 | inconclusive: 20 µM [cytotoxic, single point] | –
5 | Cc1cc(N2CCC(C)CC2)n2ncc(-c3ccccc3)c2n1 | inconclusive: 20 µM [cytotoxic, partial curve] | –
6 | CCN(C(=O)c1ccccc1Cl)c1ccccc1 | inconclusive: 31.6 µM [cytotoxic, single point] | –
7 | CC(C)CCNC(=O)[C@@H](c1ccccc1)N1Cc2ccccc2C1=O | inactive | –
8 | CCOc1ccc(NC(=O)Cn2nnc(C(=O)Nc3ccc(OCC)cc3)c2N)cc1 | inconclusive: 7.94 µM [cytotoxic, partial curve] | –
9 | CC(C)Nc1ncnc2c1cnn2-c1ccc(Cl)cc1 | active: 12.6 µM | –
10 | Cc1ccc(C(=O)Oc2coc(CSc3nnc(NC(=O)C4CC4)s3)cc2=O)cc1 | inconclusive: 0.0178 µM [cytotoxic, full curve, poor fit] | –
11 | CSc1ccc(CNC(=O)c2ccc(NC(=O)c3nsc4ccccc34)cc2)cc1 | inconclusive: 10 µM [cytotoxic, partial curve] | –
12 | Cc1ccccc1NC(=O)Cn1c(=O)n(CC2CCC(C(=O)NCCc3ccccc3)CC2)c(=O)c2ccccc21 (centres undefined) | inconclusive: 25.1 µM [cytotoxic, single point] | –
13 | Nc1c(C(=O)Nc2ccccc2)nnn1Cc1ccc(F)cc1Cl | inactive | –
14 | COc1ccc(Cl)cc1NC(=O)Cn1c(=O)n(CCC(=O)NCc2ccc3c(c2)OCO3)c(=O)c2ccccc21 | inconclusive: 15.8 µM [cytotoxic, single point] | –
15 | NCCSS(=O)(=O)CCN | – | inactive: 8.06% [at 9.22 µM]
16 | COc1cccc(-c2noc(-c3cccnc3)n2)c1 | inconclusive: 10 µM [cytotoxic, partial curve] | –
17 | O=C1c2ccccc2S(=O)(=O)N1Cc1nc2ccccc2s1 | inconclusive: 15.8 µM [cytotoxic, partial curve] | –
18 | COc1cccc(NC(=O)c2oc3ccccc3c2NC(=O)c2ccc3c(c2)OCO3)c1 | active: 10 µM | –
19 | Cc1cccc(-n2nnnc2SCC(=O)c2cc(C)n(Cc3ccco3)c2C)c1 | inconclusive: 31.6 µM [cytotoxic, single point] | –
20 | c1ccc(Nc2nc(-c3ccc4c(c3)OCO4)nc3ccccc23)cc1 | inconclusive: 25.1 µM [cytotoxic, single point] | –
21 | COc1cccc(Cn2c(=O)c(-c3cc(F)cc(F)c3)nc3cnc(N4CCNCC4)nc32)c1 | inconclusive: 25.1 µM [cytotoxic, single point] | –
22 | O=C(Cn1c(=O)c2ccccc2n(CC(=O)Nc2ccc(F)cc2F)c1=O)NCCc1ccccc1 | inactive | –
23 | Cn1c(-c2ccc(Br)o2)nc2cc(Br)ccc21 | inconclusive: 12.6 µM [cytotoxic, partial curve] | –

Row | Compound | Potency | activity change, negative = cytotoxicity
24 | COc1cccc(-c2ccc3c(N)c(C(=O)c4ccc(Cl)cc4)sc3n2)c1 | inconclusive: 31.6 µM [cytotoxic, single point] | –
25 | O=C(Nc1nc2n(n1)C(c1ccccc1)C=C(c1ccccc1)N2)c1ccc(Cl)c([N+](=O)[O-])c1 (centres undefined) | inconclusive: 12.6 µM [cytotoxic, partial curve] | –
26 | CCCCCCCCN[C@@H](C)[C@H](O)c1ccc(SC(C)C)cc1 | inconclusive: 12.6 µM [cytotoxic, single point] | –
27 | Cn1nc(-c2ccc(C(=O)Nc3ccc(F)cc3)cc2)c2ccccc2c1=O | inconclusive: 25.1 µM [cytotoxic, single point] | –
28 | COc1ccc2cc(-c3nc4ccc(C(=O)O)cc4[nH]3)c(=O)oc2c1 | active: 1.58 µM | –
29 | CC[C@@H](c1ccccc1)n1c(=O)n2n(c1=O)[C@H]1[C@H](O)[C@H]3O[C@@H]3/C(=N/OC/C=C(\C)CCC=C(C)C)[C@@H]1CC2 | – | inactive: -0.453% [at 9.22 µM]
30 | Nc1c(C(=O)NCCN2CCOCC2)c2nc3ccccc3nc2n1-c1cccc(F)c1 | inactive | –
31 | CCSc1ncc(Cl)c(C(=O)Nc2ccc(S(=O)(=O)N(C)c3ccccc3)cc2)n1 | inactive | –
32 | Cc1cc(Nc2cccc(Cl)c2)nc2ccc(NC(=O)c3cccnc3)cc12 | inconclusive: 35.5 µM [cytotoxic, single point] | –
33 | CCOC(=O)C1CCCN(S(=O)(=O)c2cn(C)c(=O)n(C)c2=O)C1 (centres undefined) | inactive | –
34 | CCOc1ccc(NC(=O)c2nccnc2CO)cc1 | active: 12.6 µM | –
35 | Cc1cc(C)cc(OCC(=O)Nc2ccc(-c3nc4ccccc4o3)cc2)c1 | inconclusive: 20 µM [cytotoxic, single point] | –
36 | CCOc1cc(N2CCOCC2)c(OCC)cc1NC(=O)COc1cccc2cccnc12 | inconclusive: 31.6 µM [cytotoxic, single point] | –
37 | CCOc1ccc(CCNC(=O)CN2C(=O)C(CC)Oc3ccccc32)cc1OCC (centres undefined) | inactive | –
38 | COc1ccc(NC(=O)c2c(NCc3ccc(C)o3)sc3c2CCC(C)C3)c(OC)c1 (centres undefined) | inconclusive: 31.6 µM [cytotoxic, single point] | –
39 | Cc1ccc(S(=O)(=O)NCCSc2nnnn2-c2cc(C)ccc2C)cc1 | inactive | –
40 | CCC(Sc1nc2n[nH]c(C)c2c(=N)n1-c1cccc(Cl)c1)C(=O)NCCOC (centres undefined) | inconclusive: 10 µM [cytotoxic, single point] | –
41 | CC(C)Cn1c(=O)c2ccccc2n2c(CCC(=O)Nc3cccc(Cl)c3)nnc12 | inconclusive: 31.6 µM [cytotoxic, single point] | –
42 | N#CC1=C2SCN(Cc3ccccc3)CN2C(=O)CC1c1cccs1 (centres undefined) | inactive | –
43 | CCC(CC)c1nn2c(=O)cc(COc3ccc(NC(=O)c4ccccc4Cl)cc3)nc2s1 | inconclusive: 2.51 µM [cytotoxic, full curve] | –
44 | CN(C)CCNC(=O)c1ccc(-n2c(-c3ccccc3)cc3c2CCCC3)cc1 | inactive | –
45 | CCCS(=O)(=O)Nc1cc(-c2cn3cccc(C)c3n2)ccc1C | inconclusive: 12.6 µM [cytotoxic, single point] | –
46 | Cc1oc2ccc(O)c(CN(C)Cc3ccccc3)c2c1C(=O)Nc1cccc(C(F)(F)F)c1 | active: 14.1 µM | –

Row | Compound | Potency | activity change, negative = cytotoxicity
47 | COC(=O)c1cc(-c2ccc(Br)cc2)on1 | inconclusive: 25.1 µM [cytotoxic, single point] | –
48 | O=C(CSc1nnc(-c2ccc3c(c2)OCCO3)o1)N1CCCC1 | inconclusive: 15.8 µM [cytotoxic, partial curve] | –
49 | Cc1ccc(C(C)C)c(OCC(=O)Nc2cccc(NC(=O)c3ccco3)c2)c1 | inconclusive: 35.5 µM [cytotoxic, single point] | –
50 | O=C(Nc1ccc(Cl)cc1C(F)(F)F)c1cc(S(=O)(=O)NCc2ccccc2)ccc1F | inconclusive: 35.5 µM [cytotoxic, single point] | –
51 | CCc1ccc(CNC(=O)c2ccc(CS(=O)(=O)Cc3ccccc3C)o2)cc1 | inactive | –
52 | Cc1occc1C(=O)Nc1ccc2ccccc2c1 | inconclusive: 10 µM [cytotoxic, partial curve] | –
53 | CC(=O)c1cccc(NC(=O)c2cc(C(C)C)on2)c1 | inconclusive: 12.6 µM [cytotoxic, partial curve, poor fit] | –
54 | Cc1ccc(C(=O)c2cc(C)sc2NC(=O)CN2CCN(C(=O)c3ccco3)CC2)cc1 | inconclusive: 12.6 µM [cytotoxic, single point] | –
55 | COc1cccc(CNC(=O)C2CCCN(S(=O)(=O)c3cn(C)cn3)C2)c1 (centres undefined) | inactive | –
56 | Cc1ccnc(NC(c2cc(C)ccc2O)c2ccc3cccnc3c2O)c1 (centres undefined) | inconclusive: 2 µM [cytotoxic, full curve, poor fit] | –
57 | COc1ccc(S(=O)(=O)N(C(=O)c2ccncc2)c2ccc3oc(C)c(C(C)=O)c3c2)cc1 | inconclusive: 11.2 µM [cytotoxic, single point] | –
58 | COc1ccccc1N1CCN(Cc2cc(COC(C)C)c3cccnc3c2O)CC1 | inconclusive: 10 µM [cytotoxic, partial curve] | –
59 | CC(C)c1ccc(-c2noc(SCC(=O)N3CCCCC3)n2)cc1 | active: 12.6 µM | –
60 | Cc1ccc(OCC(=O)Nc2cccc(C)n2)c(C)c1 | inconclusive: 15.8 µM [cytotoxic, partial curve] | –
61 | COc1ccc2c(c1)Cc1sc(NC(=O)c3cccc(Cl)c3)nc1-2 | inconclusive: 10 µM [cytotoxic, partial curve] | –
62 | O=C(O)c1ccc(CSc2nnnn2C2CCCCC2)cc1 | inactive | –
63 | Cn1c2ccccc2c2c(C(=O)NCC3CCCO3)cn(C3CCCC3)c(=O)c21 (centres undefined) | inactive | –
64 | O=C(NCc1ccccc1F)c1cccc(NC(=O)N2CCSc3ncccc32)c1 | inactive | –
65 | COc1cc(NC(=O)c2csc3c2CCCC3)ncn1 | inconclusive: 10 µM [cytotoxic, partial curve] | –
66 | c1ccc(-c2noc(-c3ccncc3)n2)nc1 | inconclusive: 10 µM [cytotoxic, partial curve] | –
67 | CC1CN(C(=O)Nc2ccc3snnc3c2)c2ccccc21 (centres undefined) | inconclusive: 31.6 µM [cytotoxic, single point] | –
68 | CN(C)C(=O)c1ccc(-c2nc(Nc3ccccc3)c3ccccc3n2)cc1 | inconclusive: 10 µM [cytotoxic, partial curve] | –
69 | Cc1cccc(Cn2nnc3c(=O)[nH]c(C4CCCN(C(=O)c5ccc(C(C)(C)C)cc5)C4)nc32)c1 (centres undefined) | inconclusive: 35.5 µM [cytotoxic, single point] | –
